In the supplement of paper PMC8728848:
This is one part of the list.

What was measured:
Assay in all cases: glycan array binding signal (z-score within array); higher = stronger binding
Conditions in all cases: glycan notation: IUPAC condensed, linker removed
[1] = biological target: Gal(b1-4)GlcNAc(b1-3)Gal(b1-4)GlcNAc(b1-3)Gal(b1-4)GlcNAc(b1-3)Gal(b1-4)GlcNAc(b1-2)Man(a1-3)[Gal(b1-4)GlcNAc(b1-3)Gal(b1-4)GlcNAc(b1-3)Gal(b1-4)GlcNAc(b1-3)Gal(b1-4)GlcNAc(b1-2)Man(a1-6)]Man(b1-4)GlcNAc(b1-4)GlcNAc
Procedure, shortened: (§1)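 Glycan array binding is given as a within-array Z-score, which can be read as non-binding when negative. The arrays, 3228 of them, came from the Consortium for Functional Glycomics database and were retained only where the protein sequence was available. Z-scores were averaged across arrays of the same protein sequence at different concentrations or buffers and across linkers.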

[2] = biological target: Gal(b1-4)GlcNAc(b1-3)Gal(b1-4)GlcNAc(b1-3)Gal(b1-4)GlcNAc(b1-3)Gal(b1-4)GlcNAc(b1-2)Man(a1-3)[Gal(b1-4)GlcNAc(b1-3)Gal(b1-4)GlcNAc(b1-3)Gal(b1-4)GlcNAc(b1-3)Gal(b1-4)GlcNAc(b1-2)Man(a1-6)]Man(b1-4)GlcNAc(b1-4)[Fuc(a1-6)]GlcNAc
Procedure, shortened: as §1

[3] = biological target: Gal(b1-4)GlcNAc(b1-3)Gal(b1-4)GlcNAc(b1-3)Gal(b1-4)GlcNAc(b1-3)Gal(b1-4)GlcNAc(b1-2)[Gal(b1-4)GlcNAc(b1-3)Gal(b1-4)GlcNAc(b1-3)Gal(b1-4)GlcNAc(b1-3)Gal(b1-4)GlcNAc(b1-6)]Man(a1-6)[Gal(b1-4)GlcNAc(b1-3)Gal(b1-4)GlcNAc(b1-3)Gal(b1-4)GlcNAc(b1-3)Gal(b1-4)GlcNAc(b1-2)Man(a1-3)]Man(b1-4)GlcNAc(b1-4)[Fuc(a1-6)]GlcNAc
Procedure, shortened: as §1

[4] = biological target: Gal(b1-4)GlcNAc(b1-3)Gal(b1-4)GlcNAc(b1-3)Gal(b1-4)GlcNAc(b1-3)Gal(b1-4)GlcNAc(b1-3)Gal(b1-4)GlcNAc(b1-2)Man(a1-3)[Gal(b1-4)GlcNAc(b1-3)Gal(b1-4)GlcNAc(b1-3)Gal(b1-4)GlcNAc(b1-3)Gal(b1-4)GlcNAc(b1-3)Gal(b1-4)GlcNAc(b1-2)Man(a1-6)]Man(b1-4)GlcNAc(b1-4)GlcNAc
Procedure, shortened: as §1

[5] = biological target: Gal(b1-4)GlcNAc(b1-3)Gal(b1-4)GlcNAc(b1-3)Gal(b1-4)GlcNAc(b1-3)Gal(b1-4)GlcNAc(b1-3)Gal(b1-4)GlcNAc(b1-2)Man(a1-3)[Gal(b1-4)GlcNAc(b1-3)Gal(b1-4)GlcNAc(b1-3)Gal(b1-4)GlcNAc(b1-3)Gal(b1-4)GlcNAc(b1-3)Gal(b1-4)GlcNAc(b1-2)Man(a1-6)]Man(b1-4)GlcNAc(b1-4)[Fuc(a1-6)]GlcNAc
Procedure, shortened: as §1

[6] = biological target: Gal(b1-4)GlcNAc(b1-3)Gal(b1-4)GlcNAc(b1-3)Gal(b1-4)GlcNAc(b1-3)Gal(b1-4)GlcNAc(b1-3)Gal(b1-4)GlcNAc(b1-2)[Gal(b1-4)GlcNAc(b1-3)Gal(b1-4)GlcNAc(b1-3)Gal(b1-4)GlcNAc(b1-3)Gal(b1-4)GlcNAc(b1-3)Gal(b1-4)GlcNAc(b1-6)]Man(a1-6)[Gal(b1-4)GlcNAc(b1-3)Gal(b1-4)GlcNAc(b1-3)Gal(b1-4)GlcNAc(b1-3)Gal(b1-4)GlcNAc(b1-3)Gal(b1-4)GlcNAc(b1-2)Man(a1-3)]Man(b1-4)GlcNAc(b1-4)[Fuc(a1-6)]GlcNAc
Procedure, shortened: as §1

[7] = biological target: Gal(b1-4)GlcNAc(b1-3)Gal(b1-4)GlcNAc(b1-3)Gal(b1-4)GlcNAc(b1-3)Gal(b1-4)GlcNAc(b1-3)Gal(b1-4)GlcNAc(b1-3)Gal(b1-4)GlcNAc(b1-2)Man(a1-3)[Gal(b1-4)GlcNAc(b1-3)Gal(b1-4)GlcNAc(b1-3)Gal(b1-4)GlcNAc(b1-3)Gal(b1-4)GlcNAc(b1-3)Gal(b1-4)GlcNAc(b1-3)Gal(b1-4)GlcNAc(b1-2)Man(a1-6)]Man(b1-4)GlcNAc(b1-4)GlcNAc
Procedure, shortened: as §1

[8] = biological target: Gal(b1-4)GlcNAc(b1-3)Gal(b1-4)GlcNAc(b1-3)GalNAc
Procedure, shortened: as §1

[9] = biological target: Gal(b1-4)GlcNAc(b1-3)Gal(b1-4)GlcNAc(b1-3)[Gal(b1-4)GlcNAc(b1-3)Gal(b1-4)GlcNAc(b1-6)]GalNAc
Procedure, shortened: as §1

[10] = biological target: Gal(b1-4)GlcNAc(b1-3)Gal(b1-4)GlcNAc(b1-6)[Gal(b1-3)]GalNAc
Procedure, shortened: as §1

[11] = biological target: Gal(b1-4)GlcNAc(b1-3)Gal(b1-4)[Fuc(a1-3)]GlcNAc(b1-3)Gal(b1-4)[Fuc(a1-3)]GlcNAc
Procedure, shortened: as §1

[12] = biological target: Gal(b1-4)GlcNAc(b1-3)GalNAc
Procedure, shortened: as §1

[13] = biological target: Gal(b1-4)GlcNAc(b1-3)[Fuc(a1-3)GlcNAc(b1-6)]Gal(b1-4)Glc
Procedure, shortened: as §1

[14] = biological target: Gal(b1-4)GlcNAc(b1-3)[Gal(b1-4)GlcNAc(b1-6)]Gal(b1-4)GlcNAc
Procedure, shortened: as §1

[15] = biological target: Gal(b1-4)GlcNAc(b1-3)[GlcNAc(b1-6)]Gal(b1-4)GlcNAc
Procedure, shortened: as §1

[16] = biological target: Gal(b1-4)GlcNAc(b1-6)Gal(b1-4)GlcNAc
Procedure, shortened: as §1

[17] = biological target: Gal(b1-4)GlcNAc(b1-6)GalNAc
Procedure, shortened: as §1

[18] = biological target: Gal(b1-4)GlcNAc(b1-6)[Gal(b1-3)]GalNAc
Procedure, shortened: as §1

[19] = biological target: Gal(b1-4)GlcNAc(b1-6)[Gal(b1-4)GlcNAc(b1-3)]GalNAc
Procedure, shortened: as §1

[20] = biological target: Gal(b1-4)GlcNAc6P
Procedure, shortened: as §1

[21] = biological target: Gal(b1-6)Gal
Procedure, shortened: as §1

[22] = biological target: Gal3S(b1-3)GalNAc
Procedure, shortened: as §1

[23] = biological target: Gal3S(b1-3)GlcNAc
Procedure, shortened: as §1

B1: DC-ASGPR L+GEE (Homo sapiens) (protein)
chain: MTRTYENFQYLENKVKVQGFKNGPLPLQSLLQRLRSGPCHLLLSLGLGLLLLVIICVVGFQNSKFQRDLVTLRTDFSNFTSNTVAEIQALTSQGSSLEETIASLKAEVEGFKQERQAGVSELQEHTTQKAHLGHCPHCPSVCVPVHSEMLLRVQQLVQDLKKLTCQVATLNNNGEEASTEGTCCPVNWVEHQDSCYWFSHSGMSWAEAEKYCQLKNAHLVVINSREEQNFVQKYLGSAYTWMGLSDPEGAWKWVDGTDYATGFQNWKPGQPDDWQGHGLGGGEDCAHFHPDGRWNDDVCQRPYHWVCEAGLGQTSQESH
With B1 the “glycan array binding signal (z-score)” value [1] was -0.356, the “glycan array binding signal (z-score)” value [2] was -0.256 and the “glycan array binding signal (z-score)” value [3] was 2.52. For the same binder, the “glycan array binding signal (z-score)” value [4] was 0.526, the “glycan array binding signal (z-score)” value [5] was -0.111 and the “glycan array binding signal (z-score)” value [6] was 1.34. For the same binder, the “glycan array binding signal (z-score)” value [7] was 0.991, the “glycan array binding signal (z-score)” value [8] was 0.133 and the “glycan array binding signal (z-score)” value [9] was 0.178. The “glycan array binding signal (z-score)” value [10] was -0.495, the “glycan array binding signal (z-score)” value [11] was -0.203 and the “glycan array binding signal (z-score)” value [12] was -0.353. For the same binder, the “glycan array binding signal (z-score)” value [13] was -0.166, the “glycan array binding signal (z-score)” value [14] was -0.441 and the “glycan array binding signal (z-score)” value [15] was -0.101. For the same binder, the “glycan array binding signal (z-score)” value [16] was -0.61, the “glycan array binding signal (z-score)” value [17] was 2.32 and the “glycan array binding signal (z-score)” value [18] was -0.336. For the same binder, the “glycan array binding signal (z-score)” value [19] was -0.432, the “glycan array binding signal (z-score)” value [20] was -0.684 and the “glycan array binding signal (z-score)” value [21] was -0.84. The “glycan array binding signal (z-score)” value [22] was 0.442 and the “glycan array binding signal (z-score)” value [23] was 0.009.
